Experimental data: PMC4336329 (PLoS ONE, 2015)
In all, about 310,000 compounds went through this assay and about 2,200 (0.71%) showed an effect of 50% or more. The effect is printed as a negative number. Some of the results follow.

The molecules below were run against human ether-à-go-go-related gene (hERG) potassium channel (human, UniProt Q12809) (assay: primary screen, population patch clamp on CHO cells stably expressing hERG).
human ether-à-go-go-related gene (hERG) potassium channel, sequence (Q12809 whole entry, looked up): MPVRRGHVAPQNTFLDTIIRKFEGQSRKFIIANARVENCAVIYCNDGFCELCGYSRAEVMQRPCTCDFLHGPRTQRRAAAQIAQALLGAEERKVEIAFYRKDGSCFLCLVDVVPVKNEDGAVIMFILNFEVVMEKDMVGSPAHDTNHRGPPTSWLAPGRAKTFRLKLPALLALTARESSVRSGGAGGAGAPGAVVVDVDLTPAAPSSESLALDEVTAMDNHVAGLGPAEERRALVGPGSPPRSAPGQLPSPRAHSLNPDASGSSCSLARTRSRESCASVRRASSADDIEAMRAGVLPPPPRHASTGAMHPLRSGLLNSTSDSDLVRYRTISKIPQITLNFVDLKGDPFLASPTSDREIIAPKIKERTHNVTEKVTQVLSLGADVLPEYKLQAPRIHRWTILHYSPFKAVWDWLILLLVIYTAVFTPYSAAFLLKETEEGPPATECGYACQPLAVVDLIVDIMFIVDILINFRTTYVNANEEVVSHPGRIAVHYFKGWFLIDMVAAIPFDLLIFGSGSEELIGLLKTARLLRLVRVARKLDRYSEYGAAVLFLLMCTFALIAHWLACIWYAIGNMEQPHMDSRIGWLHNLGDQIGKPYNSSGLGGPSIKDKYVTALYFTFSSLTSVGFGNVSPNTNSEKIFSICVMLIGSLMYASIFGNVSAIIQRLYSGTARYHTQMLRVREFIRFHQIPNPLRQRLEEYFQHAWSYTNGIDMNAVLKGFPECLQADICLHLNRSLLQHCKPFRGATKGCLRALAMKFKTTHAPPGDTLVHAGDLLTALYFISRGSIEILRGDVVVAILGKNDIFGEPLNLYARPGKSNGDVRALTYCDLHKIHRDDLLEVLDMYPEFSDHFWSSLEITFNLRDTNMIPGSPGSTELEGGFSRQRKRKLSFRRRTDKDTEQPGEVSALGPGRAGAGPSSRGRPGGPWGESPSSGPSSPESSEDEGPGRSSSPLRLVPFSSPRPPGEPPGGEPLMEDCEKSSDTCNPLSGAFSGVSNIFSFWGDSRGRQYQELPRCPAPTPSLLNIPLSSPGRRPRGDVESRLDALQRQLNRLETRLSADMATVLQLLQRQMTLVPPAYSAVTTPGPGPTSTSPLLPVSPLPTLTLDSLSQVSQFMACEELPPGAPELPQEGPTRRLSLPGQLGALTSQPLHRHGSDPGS

SMILES | hERG current change (%, negative = inhibition) at 1uM [%]
CCC(C)NC(=O)CNC(=S)N(Cc1ccc(F)cc1)C1CCCCC1 (stereo not shown) | 10.8
CCCn1c(NC(=O)CCS(=O)(=O)c2ccc(C)cc2)nc2ccccc21 | 0.756
O=C(CCl)N1N=C(c2ccco2)CC1c1ccco1 (stereo not shown) | 16.4
COc1cc(/C=C(/C#N)c2ccc(F)cc2)ccc1Oc1ccc([N+](=O)[O-])cn1 | 14
Cc1cc(C)nc(NC(=NCCc2c[nH]c3ccccc23)NC(=O)Nc2cccc([N+](=O)[O-])c2)n1 | 11.9
CCCC[C@@H]1CN=C(N)N1CCc1cc(C(F)(F)F)cc(C(F)(F)F)c1 | 1.48
Cc1c(C)c2ccc(OCc3ccc(C(=O)O)o3)c(C)c2oc1=O | 10
COc1ccc(CNC(=O)CSc2nnc3nc(C)cc(C)n23)cc1OC | 7.95
CC(NC(=O)COc1ccccc1)C(=O)NC1=NCCS1 (stereo not shown) | 7.47
COc1cccc(N(CC(=O)Nc2ccccc2C(=O)N2CCCC2)S(C)(=O)=O)c1 | 19.6
COCOc1ccc(C=O)cc1OCOC | 11.5
COc1cc([N+](=O)[O-])ccc1NC(=O)Nn1cnnc1 | 6.77
S=c1[nH]nc(COc2ccccc2)n1C1CCCCC1 | 18.3
COc1cccc(N2C(=O)C3CC=C(Cl)CC3C2=O)c1 (stereo not shown) | 4.16
O=C(c1ccc2c(c1)OCCO2)C1CCN(S(=O)(=O)c2ccccc2F)CC1 | 15.4
NC(=S)N1CCCc2ccccc21 | 5.58
CC1CCCCN1S(=O)(=O)c1ccc(C(=O)Nc2nnc(-c3cccs3)o2)cc1 (stereo not shown) | 9.02
CC(C)[C@H](NC(N)=O)C(=O)Nc1ccc(Oc2ccccc2)cc1 | 10.8
CNS(=O)(=O)c1cccc(C(=O)OCC(=O)NCc2ccccc2)c1 | 3.36
CC(=O)Nc1cc[n+](C(C)C(=O)c2ccc(Cl)cc2)cc1.[Cl-] (stereo not shown) | 19.9
COC(=O)CCN(C(=O)c1cc([N+](=O)[O-])cc([N+](=O)[O-])c1)c1ccccn1 | 6
Oc1ccc(Br)cc1-c1nc2cnccn2c1NC1CCCCC1 | 7.26
COc1ccccc1N1CCN(C(=O)CSc2nnc(NC(=O)C3CCC3)s2)CC1 | 0.809
Cc1ccc(S(=O)(=O)NC(=O)COc2cc(C)ccc2C(C)C)cc1 | 14.3
O=C(O)c1cccc(CSc2n[nH]c(-c3ccc(Cl)cc3Cl)n2)c1 | 9.09
CCn1nc(C)c(CNC(=O)Nc2ccc3c(c2)OCO3)c1C | 3.07
COCCNC(=O)c1ccc(Cn2c(=S)[nH]c3cc4c(cc3c2=O)OCO4)cc1 | 10.8
COC(=O)c1ccc(/C=C/C(=O)OCC(=O)Nc2ncc(Cl)cc2Cl)cc1 | 3.6

SMILES | hERG current change (%, negative = inhibition) at 1uM [%]
CCOc1ccc(NS(=O)(=O)c2ccc(C(=O)NC3CCN(Cc4ccccc4)CC3)cc2)cc1 | 16.1
Cc1ccc(CNC(=O)CN2C(=O)c3ccccc3S2(=O)=O)cc1 | 2.59
Nn1c(Cc2cccc3ccccc23)nnc1SCc1ccccc1Cl | 12.4
O=C(C(=O)N1CCN(c2ccccc2)CC1)c1cn(CC(=O)N2CCCCCC2)c2ccccc12 | 9.13
CCCn1c(SCC(=O)Nc2nnc(C)s2)nnc1C1CC1 | 13.9
Cc1ccc(-n2c(SCC(=O)Nc3ncc(Cl)cc3Cl)nc3ccccc32)cc1 | 15.5
O=C(NCC1CCCO1)c1ccc(NC(=O)c2cc(F)c(F)cc2Cl)cc1 (stereo not shown) | 11.6
NC(=O)C1(N2CCCCC2)CCN(C(=S)Nc2ccc(F)c(Cl)c2)CC1 | 2.55
CCN1CCN(c2ncc3c(n2)CC(c2ccc(OC)c(OC)c2)CC3=O)CC1 (stereo not shown) | 1.28
CNc1nc(-c2ccc(OC)cc2)c(-c2ccc(OC)cc2)s1 | -1.05
Cc1ccc(OCC(=O)N2CCN(C(=O)c3ccco3)CC2)cc1 | -9.07
O=C(O)COc1ccccc1/C=N/NC(=O)CSc1nc2ccccc2c(=O)n1-c1ccc(Cl)cc1 | 16.2
CC(C)Sc1nc(SCC(=O)NCc2ccco2)c2c3c(sc2n1)COC(C)(C)C3 | 11.6
O=C(c1cc2c(s1)CCCC2)N1CCN(S(=O)(=O)c2ccccc2C(F)(F)F)CC1 | 12.5
CC(C(=O)N(C)C)N1c2cccc3cccc(c23)S1(=O)=O (stereo not shown) | 13.8
Cn1cnc2c1c(=O)[nH]c(=O)n2Cc1ccccc1 | 12.2
COc1ccccc1C(=O)COC(=O)CCCN=C1NS(=O)(=O)c2ccccc21 | 16.1
CCCCn1c(NCc2ccc3c(c2)OCO3)nc2ccccc21 | -14.7
CC(=O)Nc1ccc(S(=O)(=O)N2CCC(N3CCCCC3)CC2)cc1 | 13.6
CCN1CCCC1CNS(=O)(=O)c1ccc(C(=O)Nc2ccccc2)cc1 (stereo not shown) | 4.23
O=C(NC(=S)Nc1ccc(F)c([N+](=O)[O-])c1)c1ccccc1F | 8.06
CCN(C(=O)CCS(=O)(=O)c1ccc(Br)cc1)c1ccc2c(c1)OCO2 | -3.71
CCOC(=O)CSc1nc2sc3c(c2c(=O)n1C1CCCCC1)CCN(C)C3 | -3.63
C=CCn1c(CCSCc2ccc(OC)c(C)c2)n[nH]c1=S | 15
O=C(NC1CCCCC1)c1ccc(CN2CCOCC2)cc1 | 2.1
Cc1ccc(NC(=O)c2cn(CCC#N)nc2-c2ccc3c(c2)OCCO3)c([N+](=O)[O-])c1 | -2.98
Cc1ccc(S(=O)(=O)N2CCOCC2)cc1C(=O)NCCN1C(=O)S/C(=C\c2ccccc2Cl)C1=O | -0.928
